Reference: the supplement of paper PMC4967469
IC50 is the fitted dose that halves viability relative to control wells, and lower means more sensitive; a fit beyond the top or the lowest dose is shown as a bound at that dose. The AUC spans the tested range (256-fold, ending at the top dose) of the same fit; the more sensitive the line, the further below 1. For part of these data: The top dose, if marked as inferred, was calculated from the reported fits. For part of these data: An entry number marks a drug with two screens in the source, which often give different values.

Tests used:
Experiment in all cases: Viability of human cancer cell lines after 72 h of drug (GDSC screen)
Thapsigargin = compound: C/C=C(/C)C(=O)O[C@H]1C(C)=C2[C@H]([C@@H]1OC(=O)CCCCCCC)[C@@](C)(OC(C)=O)C[C@H](OC(=O)CCC)[C@@]1(O)[C@H]2OC(=O)[C@@]1(C)O [Thapsigargin]; details: top dose 0.512 µM; top dose inferred
Experimental: (§1)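 Human cancer cell lines in 384-well plates, medium with 10% serum, drug for 72 h over a 256-fold dose range (nine 2-fold or five 4-fold steps up to the top dose). Adherent lines were fixed and stained with the nucleic acid dye Syto60, suspension lines read with resazurin; signal relative to control wells, capped at 0 and 100%. One two-parameter sigmoid per drug and line, fitted in a mixed model over all curves with the slope shared within a line.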

QL-X-138 = compound: C=CC(=O)Nc1cc(-n2c(=O)ccc3cnc4ccc(-c5cn[nH]c5)cc4c32)ccc1C [QL-X-138]; details: top dose 10.24 µM; top dose inferred
Experimental: as §1

Zibotentan = compound: COc1nc(C)cnc1NS(=O)(=O)c1cccnc1-c1ccc(-c2nnco2)cc1 [Zibotentan]; details: top dose 20 µM; top dose inferred
Experimental: as §1

CP466722 = compound: COc1cc2ncnc(-n3nc(-c4ccccn4)nc3N)c2cc1OC [CP466722]; details: top dose 16 µM; top dose inferred
Experimental: as §1

MPS-1-IN-1 = compound: COc1cc(N2CCC(O)CC2)ccc1Nc1cc(Nc2ccccc2S(=O)(=O)C(C)C)c2cc[nH]c2n1 [MPS-1-IN-1]; details: top dose 20 µM; top dose inferred
Experimental: as §1

(5Z)-7-Oxozeaenol = compound: COc1cc(O)c2c(c1)/C=C/C[C@H](O)[C@H](O)C(=O)/C=C\C[C@H](C)OC2=O [(5Z)-7-Oxozeaenol]; details: top dose 10 µM; top dose inferred
Experimental: as §1

ABT-869 = compound: Cc1ccc(F)c(NC(=O)Nc2ccc(-c3cccc4[nH]nc(N)c34)cc2)c1 [ABT-869]; details: top dose 1.024 µM; top dose inferred
Experimental: as §1

GSK269962A = compound: CCn1c(-c2nonc2N)nc2cnc(Oc3cccc(NC(=O)c4ccc(OCCN5CCOCC5)cc4)c3)cc21 [GSK269962A]; details: top dose inferred
Experimental: as §1

CMK = compound: Cc1ccc(-c2c(C(=O)CCl)n(CCCO)c3ncnc(N)c23)cc1 [CMK]; details: top dose 4 µM; top dose inferred
Experimental: as §1

ABT-888 = compound: C[C@]1(c2nc3c(C(N)=O)cccc3[nH]2)CCCN1 [ABT-888]; details: top dose 5 µM; top dose inferred
Experimental: as §1

CHIR-99021 = compound: Cc1cnc(-c2cnc(NCCNc3ccc(C#N)cn3)nc2-c2ccc(Cl)cc2Cl)[nH]1 [CHIR-99021]
Experimental: as §1

KU-55933 = compound: O=c1cc(-c2cccc3c2Sc2ccccc2S3)oc(N2CCOCC2)c1 [KU-55933]; details: top dose 10 µM
Experimental: as §1

[1] = top dose 2.5 µM, screen: GDSC drug entry 127
[2] = top dose 5 µM, screen: GDSC drug entry 1192
[3] = top dose 2.56 µM, screen: GDSC drug entry 154
[4] = top dose 10 µM, screen: GDSC drug entry 1241, top dose inferred

Cell Line	AUC (Thapsigargin)	IC50 (Thapsigargin)	AUC (QL-X-138)	IC50 (QL-X-138)	AUC (Zibotentan)	IC50 (Zibotentan)	AUC (CP466722)	IC50 (CP466722)	AUC (MPS-1-IN-1)	IC50 (MPS-1-IN-1)	AUC ((5Z)-7-Oxozeaenol)	IC50 ((5Z)-7-Oxozeaenol)	AUC (ABT-869)	IC50 (ABT-869)	AUC (GSK269962A; [1])	IC50 (GSK269962A; [1])	AUC (GSK269962A; [2])	IC50 (GSK269962A; [2])	AUC (CMK)	IC50 (CMK)	AUC (ABT-888)	IC50 (ABT-888)	AUC (CHIR-99021; [3])	IC50 (CHIR-99021; [3])	AUC (CHIR-99021; [4])	IC50 (CHIR-99021; [4])	AUC (KU-55933)	IC50 (KU-55933)
Calu-6 (lung adenocarcinoma, adherent)	0.284	7.07 nM	0.781	4890 nM	0.984	> 20000 nM	0.788	8130 nM	0.915	> 20000 nM	0.597	1200 nM	0.984	> 1020 nM	0.97	> 2500 nM	0.904	> 5000 nM	0.981	> 4000 nM	0.984	> 5000 nM	0.977	> 2560 nM	0.958	> 10000 nM	0.984	> 10000 nM
D-283MED (medulloblastoma, adherent)	0.217	5.25 nM	0.991	> 10200 nM	0.991	> 20000 nM	0.982	> 16000 nM	0.991	> 20000 nM	0.902	> 10000 nM	0.991	> 1020 nM	0.982	> 2500 nM	0.964	> 5000 nM	0.984	> 4000 nM	0.975	> 5000 nM	0.991	> 2560 nM	0.99	> 10000 nM	0.901	> 10000 nM
EM-2 (chronic myeloid leukaemia, suspension)	0.587	57.3 nM	0.568	1000 nM	0.968	> 20000 nM	0.672	3220 nM	0.902	> 20000 nM	0.602	1240 nM	0.978	> 1020 nM	0.718	711 nM	0.412	174 nM	0.901	> 4000 nM	0.982	> 5000 nM	0.954	> 2560 nM	0.878	> 10000 nM	0.919	> 10000 nM
ES4 (Ewing sarcoma, adherent)	0.11	< 2 nM	0.439	424 nM	0.97	> 20000 nM	0.709	4290 nM	0.794	10700 nM	0.799	5650 nM	0.982	> 1020 nM	0.936	> 2500 nM	0.845	4460 nM	0.971	> 4000 nM	0.978	> 5000 nM	0.978	> 2560 nM	0.97	> 10000 nM	0.954	> 10000 nM
HOP-62 (lung adenocarcinoma, adherent)	0.08	< 2 nM	0.66	1780 nM	0.983	> 20000 nM	0.823	9390 nM	0.872	18900 nM	0.678	1960 nM	0.973	> 1020 nM	0.958	> 2500 nM	0.897	> 5000 nM	0.891	> 4000 nM	0.972	> 5000 nM	–	–	–	–	0.977	> 10000 nM
MSTO-211H (mesothelioma, adherent)	0.608	61.4 nM	0.967	> 10200 nM	0.991	> 20000 nM	0.983	> 16000 nM	0.991	> 20000 nM	–	–	0.982	> 1020 nM	0.94	> 2500 nM	0.493	299 nM	0.961	> 4000 nM	0.971	> 5000 nM	0.99	> 2560 nM	–	–	0.987	> 10000 nM
MV-4-11 (leukaemia, suspension)	0.312	10.7 nM	0.259	153 nM	0.99	> 20000 nM	0.358	438 nM	0.882	14700 nM	0.022	< 39.1 nM	–	–	0.488	146 nM	0.368	146 nM	0.803	1580 nM	0.954	> 5000 nM	0.957	> 2560 nM	0.853	5760 nM	0.857	5930 nM
NALM-6 (B-cell leukaemia, suspension)	0.067	< 2 nM	–	–	0.969	> 20000 nM	0.502	1010 nM	0.746	5470 nM	0.722	2340 nM	0.987	> 1020 nM	0.825	1180 nM	0.951	> 5000 nM	0.871	2760 nM	0.983	> 5000 nM	0.896	2240 nM	0.947	> 10000 nM	0.949	> 10000 nM
NCI-H1975 (lung adenocarcinoma, adherent)	0.215	4.02 nM	0.669	2030 nM	–	–	0.82	11000 nM	0.884	> 20000 nM	0.599	1220 nM	0.982	> 1020 nM	0.776	1150 nM	0.597	602 nM	0.843	3460 nM	0.983	> 5000 nM	0.895	> 2560 nM	0.938	> 10000 nM	0.959	> 10000 nM
NKM-1 (acute myeloid leukaemia, suspension)	0.352	12.3 nM	–	–	0.981	> 20000 nM	0.623	2210 nM	0.776	8190 nM	0.457	475 nM	0.192	7.44 nM	0.972	> 2500 nM	0.88	> 5000 nM	0.978	> 4000 nM	0.921	> 5000 nM	0.902	> 2560 nM	0.913	> 10000 nM	0.907	> 10000 nM
